In all, about 410,000 compounds went through this assay and about 7,200 (1.8%) were called active. The inconclusive results got no clear call from the source; some entries with a clear call stand among them for comparison. Calls follow the shape of the dose curve; as a rule, active = well fitted activation curve with a large enough effect; inconclusive = small, poorly fitted or top-dose-only effect, or another doubt; inactive = no such curve, though single readings can be large or run the other way. A potency beside an inconclusive call is a rough fit, not a confirmed value.
Test: qHTS of TDP-43 Inhibitors; also: nearly all actives have a fitted effect of over 50% in size; as to growth rescue (activation): % of control where 0% means no effect
Settings: TDP-43 expressing yeast growth rescue, BacTiter-Glo, 24 h; growth rescue (activation): at 46.1 µM (top of the series) unless noted
How it was run: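 Galactose-induced TDP-43 yeast, OD600=0.02, compound pinned; 24 hr, 30 deg C; BacTiter-Glo luminescence for growth. Inhibitors of TDP-43 toxicity read as activators.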
Potency is read from the fitted curve at half-maximal effect; tags tell the direction and shape of the fitted curve.

Potency, inactive:
COc1ccccc1N(CC(=O)NCCSc1ccccc1)S(=O)(=O)c1ccc(C)cc1, COc1cccc(-c2nn(C)c3sc(C(=O)N4CCN(c5cccc(C(F)(F)F)c5)CC4)cc23)c1, CC1(C)Cc2c(sc3nc(-c4ccccc4)oc(=O)c23)CO1, COc1ccc(OC)c(S(=O)(=O)NCCc2sc(C)nc2C)c1, COC(=O)[C@@]12C[C@@H](CC(=O)NCc3ccccc3)C(=O)N(Cc3ccc4c(c3)OCO4)C1=CCC(C)(C)C2, CSc1nc2sc3c(c2c(=O)n1-c1ccc(C)cc1)CCCC3, COc1ccc(Cl)cc1NC(=O)N1CCC2(CC1)Oc1ccccc1C(=O)N2Cc1ccc(F)cc1, COC1(C(F)(F)F)NC(=O)N(c2ccc(F)cc2)C1=O (centres undefined), CNc1ccccc1-n1ccc(-c2ccccc2)n1, NC(=O)c1ccc(Cc2ncc(C(F)(F)F)cc2Cl)s1, COc1cc(C(=O)OCc2cc(=O)n3ccsc3n2)cc(OC)c1OC

Potency, active:
Cc1cc(C)c2nc(NNC(=O)c3ccc(S(=O)(=O)N4CC(C)CC(C)C4)cc3)sc2c1 (centres undefined) 5.01 µM, CN(Cc1cccs1)c1ncnc2sccc12 12.6 µM, CCc1ccc(CNC(=O)c2cc3c(C)nc4ccccc4c3o2)cc1 20 µM, CC1Cc2ccccc2N1c1ncnc(N)c1[N+](=O)[O-] (centres undefined) 11.2 µM, CC(Oc1cccc(Cl)c1)C(=O)Nc1ccc([N+](=O)[O-])cn1 (centres undefined) 12.6 µM

Potency, inconclusive:
Clc1ccc(-n2nnc(-c3cccnc3)n2)cc1Cl 35.5 µM [activator, single point], CCCOc1cccc(C(=O)Nc2cccc(NC(=O)c3ccc(Cl)cc3Cl)c2)c1 4.47 µM [activator, full curve, poor fit], NNC(=O)c1cc2c(ccc3ccccc32)o1 35.5 µM [activator, partial curve, poor fit], O=C(Oc1cccc2cccnc12)c1ccc2c(c1)OCCO2 22.4 µM [activator, single point], COc1ccc(NC(=O)c2ccc(-n3cccn3)nc2)cc1 11.2 µM [activator, single point], CC(C)C(=O)N/N=C/c1ccc(OCc2ccccc2)cc1 35.5 µM [activator, single point], O=C(NCc1cccs1)C1CC(c2ccccc2O)=NO1 (centres undefined) 35.5 µM [activator, single point], COc1ccc(CC(=O)N2CCN(S(=O)(=O)c3cc(Cl)ccc3Cl)CC2)cc1 22.4 µM [activator, single point], Cc1ccc(CNC(=O)CCN2C(=O)C(C)Oc3ccc(C)cc32)cc1 (centres undefined) 28.2 µM [activator, partial curve], CC(C)CCN(C(=O)c1cn2ccccc2n1)c1c(N)n(Cc2ccccc2)c(=O)[nH]c1=O 35.5 µM [activator, partial curve, poor fit], CC(=O)C1=NN(c2ccc(Cl)cc2)C(c2ccc3c(c2)OCO3)N(C(C)=O)N1C (centres undefined) 11.2 µM [activator, partial curve], CCCCNC(=O)c1ccc(-c2nc(CN3CCc4ccccc43)c(C)o2)cc1 14.1 µM [activator, partial curve], CCOc1ccc(C2Nc3ccccc3NC3=C2C(=O)CC(C)(C)C3)cc1OC (centres undefined) 1.12 µM [activator, partial curve], CCCc1cc(=O)[nH]c(SCc2cccc(C)c2)n1 31.6 µM [activator, single point], CCOC(=O)c1cnn(-c2cccc(Cl)c2)c1C1CCN(C(=O)OC(C)(C)C)CC1 11.2 µM [activator, partial curve, poor fit], COC(=O)C1=CN(c2ccc(OC)cc2)C=C(C(=O)OC)C1c1ccc(C)c([N+](=O)[O-])c1 0.501 µM [activator, full curve], COc1cccc(CCNC(=O)c2cnc3sc(N4CCCC4)nn3c2=O)c1 25.1 µM [activator, partial curve], CCNC(=O)CC1SC(=Nc2cccc(Cl)c2C)N(C)C1=O (centres undefined) 14.1 µM [activator, single point], CCOC(=O)c1cc2c(=O)n3ccccc3nc2n(CC2CCCO2)c1=NC(=O)c1ccc(OCC)cc1 (centres undefined) 0.0708 µM [activator, full curve, poor fit], CCOc1ccc(CO/N=C/c2c(C)[nH]c(=O)[nH]c2=O)cc1 2.82 µM [activator, partial curve], CC(=O)Nc1cccc(C(=O)/C=C/c2ccc(Br)cc2)c1 31.6 µM [activator, single point], O=c1[nH]c(/C(Cl)=C/c2cccc(F)c2)nc2cc(C(F)(F)F)ccc12 0.562 µM [activator, full curve, poor fit], COc1ccccc1NC(=O)C(=O)NCC(c1ccco1)N1CCc2ccccc21 (centres undefined) 20 µM [activator, partial curve], O=C1CC2(CCN(S(=O)(=O)c3ccccc3F)CC2)Oc2ccccc21 11.2 µM [activator, partial curve], CN(C)c1cc(-c2ccc(F)cc2)oc(=O)c1Cl 15.8 µM [activator, single point], CC(Nc1nc(-c2ccccc2)nc2ccccc12)c1ccccc1 (centres undefined) 35.5 µM [activator, partial curve]

Growth rescue (activation), inconclusive:
COC(=O)c1ccc(N2C(=O)CC(N(C)CCc3ccc(OC)c(OC)c3)C2=O)cc1 (centres undefined) -92.6% [activator], N#Cc1ccc(C(C(=O)NC2CCCCC2)n2c(=O)c(-c3ccccc3)nc3ccccc32)cc1 (centres undefined) 30.4% [activator]

— PubChem BioAssay AID652104 (National Center for Advancing Translational Sciences (NCATS), 2013)
